Experimental data taken from PubChem BioAssay AID1030 (National Center for Advancing Translational Sciences (NCATS), 2008).
In all, about 220,000 compounds went through this assay and about 16,000 (7.3%) were called active. This list was built around the results that the source calls inconclusive (neither active nor inactive); the mix of calls is not that of the screen. Calls follow the shape of the dose curve; as a rule, active = well fitted inhibition curve with a large enough effect (not every such curve was filed as active); inconclusive = small, poorly fitted or top-dose-only effect, or another doubt; inactive = no such curve, though single readings can be large or run the other way. Where the call is inconclusive, the potency comes from a doubtful curve fit.

Each compound was assayed against Aldehyde dehydrogenase 1A1 (Homo sapiens) (UniProt P00352) (assay: qHTS Assay for Inhibitors of Aldehyde Dehydrogenase 1 (ALDH1A1)). Settings: Purified ALDH1A1, NADH fluorescence, propionaldehyde substrate; series mostly up to 75.3 µM.
UniProt P00352, sequence (P00352 whole entry, looked up): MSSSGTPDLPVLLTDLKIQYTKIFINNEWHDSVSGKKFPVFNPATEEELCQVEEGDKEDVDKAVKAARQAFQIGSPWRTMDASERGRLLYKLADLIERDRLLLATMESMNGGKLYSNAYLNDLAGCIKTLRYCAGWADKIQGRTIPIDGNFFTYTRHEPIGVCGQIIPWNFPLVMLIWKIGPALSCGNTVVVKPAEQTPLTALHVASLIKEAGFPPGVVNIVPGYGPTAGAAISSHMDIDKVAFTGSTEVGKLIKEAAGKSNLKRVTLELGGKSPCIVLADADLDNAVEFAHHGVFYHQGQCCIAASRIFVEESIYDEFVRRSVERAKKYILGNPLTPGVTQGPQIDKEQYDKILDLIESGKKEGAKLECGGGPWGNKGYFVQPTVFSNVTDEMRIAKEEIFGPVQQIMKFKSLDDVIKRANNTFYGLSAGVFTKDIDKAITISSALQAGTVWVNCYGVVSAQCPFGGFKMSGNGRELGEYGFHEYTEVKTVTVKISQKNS
Potency is read from the fitted curve at half-maximal effect; tags tell the direction and shape of the fitted curve.

Potency, inconclusive:
CN(C)c1nnnn1-c1cccc(Oc2ncc(C(F)(F)F)cc2Cl)c1 39.8 µM [inhibitor, single point], O=C(CC1C(=O)NCCN1Cc1ccc(-c2ccccc2)cc1)NCCc1ccccn1 (stereo unspecified) 39.8 µM [inhibitor, single point], CN1CCN(C(=S)NC(=O)c2cccc(S(=O)(=O)N(C)C)c2)CC1 39.8 µM [inhibitor, single point], Cc1ccccc1N1C(=O)CC(N(O)c2ccccc2)C1=O (stereo unspecified) 39.8 µM [inhibitor, single point], O=C(NN1C(=O)c2ccccc2NC1c1ccoc1)c1ccccc1 (stereo unspecified) 35.5 µM [inhibitor, single point], Cc1ccccc1NC(=O)c1nc[nH]c1C(=O)NCc1ccccc1 31.6 µM [inhibitor, partial curve], CCOc1nc(-c2ccccc2)ccc1-c1noc(COc2ccccc2)n1 25.1 µM [inhibitor, partial curve], COc1ccc(-c2nc3cnc(N4CCN(C)CC4)nc3n(CCC#N)c2=O)cc1 25.1 µM [inhibitor, partial curve], CSc1nc2ccc(NC(=O)c3ccc(Cl)s3)cc2s1 35.5 µM [inhibitor, single point], COc1cccc(-n2cn[nH]c2=S)c1 22.4 µM [inhibitor, single point], CCOC(=O)c1oc2nc(CC(C)C)c3c(c2c1N)CCC3 28.2 µM [inhibitor, partial curve], CCCCCn1c(=O)[nH]c2cc(C(=O)O)ccc2c1=O 39.8 µM [inhibitor, single point], COCCn1c(C)cc(C(=O)COC(=O)c2ccc([N+](=O)[O-])o2)c1C 39.8 µM [inhibitor, single point], COc1ccc(NC(=O)CCCNS(=O)(=O)c2cccs2)cc1 35.5 µM [inhibitor, single point], Cc1ccc(-c2ccc(/C=N/NC(=O)CN3CCOCC3)o2)cc1[N+](=O)[O-] 39.8 µM [inhibitor, single point], COc1ccc(Cn2c(N)c(C#N)c3nc4ccccc4nc32)cc1OC 28.2 µM [inhibitor, partial curve], O=C(CO/N=C/c1cccc([N+](=O)[O-])c1)Nc1ccc2ccccc2c1 22.4 µM [inhibitor, single point], CCNC(=S)NN=C1CCC(C(C)(C)C)CC1 (stereo unspecified) 14.1 µM [inhibitor, partial curve], Cc1cccc(C2=NN(c3ccc(Br)cc3)[C@@H](C(=O)N3CCOC3=O)[C@@H]2c2ccccc2)c1 31.6 µM [inhibitor, partial curve], NS(=O)(=O)c1ccc(N/N=C/c2ccccc2C(=O)O)c([N+](=O)[O-])c1 22.4 µM [inhibitor, partial curve], COc1ccc(C2=NN(C(=O)CSc3ncccn3)C(c3cccc(OC)c3OC)C2)cc1 (stereo unspecified) 37.7 µM [inhibitor, single point], CCC(=O)OC1(C)C(=O)C=C2C=C(c3ccsc3)OC=C2C1=O (stereo unspecified) 39.8 µM [inhibitor, single point], COC(=O)c1ccc(CNC(=O)c2c3c(nc4ccccc24)CCN(Cc2ccccc2)C3)cc1 10 µM [inhibitor, partial curve], O=C(CSc1nnnn1C1CCCC1)NCc1cccs1 31.6 µM [inhibitor, single point], Cc1ccc(-n2c(O)c(C=NC3CCS(=O)(=O)C3)c3ccccc3c2=O)cc1C (stereo unspecified) 35.5 µM [inhibitor, single point], COc1ccc(CNc2ccc3c(c2)ncn3-c2ccccc2OC)cc1 25.1 µM [inhibitor, single point], CCN(CC)C(=O)CSc1nc2ccc(NC(=O)CSc3nccn3C)cc2s1 20 µM [inhibitor, partial curve, poor fit], CCOC(=O)c1[nH]c2ccccc2c1NC(=S)Nc1cccc(C)c1 39.8 µM [inhibitor, single point], COc1ccc(CN(C(=O)c2oc3ccccc3c2C)C2CCS(=O)(=O)C2)cc1 (stereo unspecified) 25.1 µM [inhibitor, single point], COc1ccc(-c2ccc(-c3noc(-c4ccccc4F)n3)c(OC)n2)cc1 6.31 µM [inhibitor, partial curve], Cc1cc(C)c(C#N)c(SCc2[nH]nc3c2C(c2ccccc2)C(C#N)=C(N)O3)n1 (stereo unspecified) 28.2 µM [inhibitor, single point], CCc1cc(-c2n[nH]c(C)c2Oc2ccc(C(C)C)cc2)c(O)cc1O 28.2 µM [inhibitor, single point], Cc1nnc(SCC(=O)N2CC(=O)Nc3ccccc32)n1Cc1ccccc1 22.4 µM [inhibitor, partial curve], COc1ccc2cc(-c3cc(C(=O)O)c4ccccc4n3)ccc2c1 25.1 µM [inhibitor, partial curve], COc1ccc(CC(=O)Nc2cccc(C(=O)Nc3ccccc3C(=O)O)c2)cc1OC 39.8 µM [inhibitor, single point], COC1=CC(=O)C(C(=O)c2ccccc2)=CC1=O 25.1 µM [inhibitor, single point], COc1cccc(NS(=O)(=O)c2cc(C)ccc2OC)c1 31.6 µM [inhibitor, single point], N/C(=N\OS(=O)(=O)c1ccccc1)c1ccccn1 39.8 µM [inhibitor, single point], COc1cc(C2N3CC4(C)CN2CC(C)(C3)C4)ccc1O (stereo unspecified) 39.8 µM [inhibitor, single point], O=C(Cc1ccccc1)NCCSCc1ccccc1 44.7 µM [inhibitor, single point], CC(C)CC(=O)N1CCN(Cc2cccc([N+](=O)[O-])c2)CC1 39.8 µM [inhibitor, single point]

Potency, inactive:
CCCc1cc(=O)c2c(O)ccc(OC)c2o1, NCCCC[C@@H]1NC(=O)[C@H](CCC(=O)O)NC(=O)c2cc([N+](=O)[O-])cc(I)c2OCC[C@@H](C(N)=O)NC1=O, CC12CC[C@@H]3c4ccc(OS(=O)(=O)O)cc4CC[C@H]3C1CCC2=O (stereo partly specified), Cc1ccc(C(CCN)c2ccco2)cc1 (stereo unspecified), COc1cc2c(C)nc(C)c(C#N)c2cc1OC, OC1(c2cccc(C(F)(F)F)c2)CCN(Cc2nnnn2Cc2ccccc2)CC1, O=Cc1c[nH]c2ccc(S(=O)(=O)N3CCOCC3)cc12, CCOc1cc(NC(=S)NCC2CCCO2)c(OCC)cc1NC(=O)c1cccc(F)c1 (stereo unspecified), O=C(Nc1ccc(F)c([N+](=O)[O-])c1)C1CC(=O)N(Cc2ccccc2)C1 (stereo unspecified), CN(C)C(=O)c1ccc(-c2nc(NCc3ccccc3)c3ccccc3n2)cc1, CC(C)N(C)C, O=C(N/N=C/C=C/c1ccccc1)c1cccs1, Cc1ccc2cn[nH]c2c1[N+](=O)[O-], Cc1cc(C)c2c(n1)sc1c(-c3ccccc3)c(C#N)c(N)nc12, Nc1ccc(C(=O)c2cccs2)cn1, COc1ccccc1C(=O)N/C(=C\c1ccccc1)C(=O)NC(C)C(=O)O (stereo unspecified), O=C(Nn1c(-c2ccccc2)nc2ccccc2c1=O)c1ccc([N+](=O)[O-])cc1, CCN(CC)S(=O)(=O)c1cccc(NC(=O)c2ccc(-n3nc(C)cc3C)cc2)c1, Cc1ccccc1SCC(=O)NC1CCOC1=O (stereo unspecified), Cc1cc2c(cc1C)N(C(=O)CSc1nncn1C)C(C)(C)c1ssc(=S)c1-2, O=S(=O)(NCc1ccc(Cl)cc1Cl)c1ccc(N2CCOCC2)nc1, CC(C)C(=O)NC(=S)Nc1ccc(CN2CCOCC2)cc1, O=C(NC1CCCCCC1)C(=S)NC1CCCCC1

Potency, active:
CCCOc1ccc(N)cc1N 5.62 µM, Cc1ccc(NC(=O)CNc2ccc(N3CCOCC3)cc2)cc1S(=O)(=O)N(C)C 10 µM, Cc1ccc(S(=O)(=O)Cn2nnnc2C(C(C)C)N2CCc3ccccc3C2)cc1 (stereo unspecified) 10 µM, N#Cc1ccc(NC(=S)NC(=O)CCc2ccc(S(=O)(=O)N3CCOCC3)cc2)cc1 15.8 µM, Cc1ccc(/C=C/C(=O)NCCc2c[nH]c3ccccc23)o1 14.1 µM, O=C(CSCCO)Nc1ccc(C2CCCCC2)cc1 7.08 µM, O=C(c1cc2ccccc2c(=O)o1)N1CCCc2ccccc21 4.47 µM, CCOc1cccc(C(=O)Nc2cnn(Cc3ccccc3)c2)c1 3.98 µM, O=C(NCCNc1ccc([N+](=O)[O-])cc1)c1cccc(Br)c1 7.08 µM, O=C(C1CCCN(Cc2cccnc2)C1)N1CCCCC1 (stereo unspecified) 5.01 µM, CCCCCCCCOC(=O)CCc1c(C)[nH]c(=S)[nH]c1=O 2 µM, CCOc1ccc(C(=O)NC(=S)Nc2ccccc2N2CCOCC2)cc1Br 3.98 µM
